Results: publication PMC4336329 (PLoS ONE, 2015)
In all, about 310,000 compounds went through this assay and about 14,000 (4.5%) showed an effect of 50% or more. Effects have a minus sign here. This is one part of the list.

Target: human ether-à-go-go-related gene (hERG) potassium channel (human, UniProt Q12809)
Test: primary screen, population patch clamp on CHO cells stably expressing hERG
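Further: peak tail current of the secondary pulse compared with the same well before compound.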

Chain of human ether-à-go-go-related gene (hERG) potassium channel (Q12809 whole entry, looked up): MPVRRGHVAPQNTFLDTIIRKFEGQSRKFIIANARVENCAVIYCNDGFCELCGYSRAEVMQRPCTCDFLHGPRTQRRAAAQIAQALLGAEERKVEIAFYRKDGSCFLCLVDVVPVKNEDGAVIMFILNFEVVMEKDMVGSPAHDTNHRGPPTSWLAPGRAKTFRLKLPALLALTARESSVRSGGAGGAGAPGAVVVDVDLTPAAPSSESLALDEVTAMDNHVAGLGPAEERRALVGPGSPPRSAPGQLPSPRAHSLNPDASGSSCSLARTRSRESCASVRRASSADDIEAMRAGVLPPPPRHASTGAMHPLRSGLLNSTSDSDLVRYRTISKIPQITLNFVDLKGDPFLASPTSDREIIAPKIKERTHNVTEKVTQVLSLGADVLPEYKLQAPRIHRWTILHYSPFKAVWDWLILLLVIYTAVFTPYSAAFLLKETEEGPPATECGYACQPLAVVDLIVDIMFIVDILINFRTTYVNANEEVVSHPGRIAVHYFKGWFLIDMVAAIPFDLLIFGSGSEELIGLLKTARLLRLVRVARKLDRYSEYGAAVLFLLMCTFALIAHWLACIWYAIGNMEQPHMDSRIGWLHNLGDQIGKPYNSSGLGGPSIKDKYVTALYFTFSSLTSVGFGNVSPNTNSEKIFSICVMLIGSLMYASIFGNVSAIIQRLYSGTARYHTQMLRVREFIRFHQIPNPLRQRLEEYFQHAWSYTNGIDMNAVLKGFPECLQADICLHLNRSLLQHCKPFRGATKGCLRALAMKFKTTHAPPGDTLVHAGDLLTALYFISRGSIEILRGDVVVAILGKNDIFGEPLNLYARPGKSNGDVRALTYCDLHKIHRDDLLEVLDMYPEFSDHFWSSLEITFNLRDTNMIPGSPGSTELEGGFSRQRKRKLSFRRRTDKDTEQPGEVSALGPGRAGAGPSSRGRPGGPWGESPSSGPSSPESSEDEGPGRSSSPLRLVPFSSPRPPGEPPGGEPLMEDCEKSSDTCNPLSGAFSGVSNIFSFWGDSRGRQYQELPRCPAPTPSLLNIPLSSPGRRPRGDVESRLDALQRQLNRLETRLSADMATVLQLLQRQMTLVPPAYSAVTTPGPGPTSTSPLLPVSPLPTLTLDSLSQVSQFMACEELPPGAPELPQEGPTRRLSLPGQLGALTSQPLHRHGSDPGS

Going from `Cc1ccc(NS(=O)(=O)c2cccc(C(=O)NCC(c3cccs3)N3CCOCC3)c2)cc1` (stereo not drawn) to `CN(C)C(CNC(=O)c1cccc(S(=O)(=O)NCc2ccccc2)c1)c1ccco1` (stereo not drawn), the “hERG current change (%, negative = inhibition) at 10uM” value falls from -14.3% to -28.2%.

Compared with `O=C(COc1ccccc1)N1CCN(S(=O)(=O)c2cccc([N+](=O)[O-])c2)CC1`, `O=C(OCc1ccccc1Cl)c1cc([N+](=O)[O-])ccc1N1CCOCC1` is higher in “hERG current change (%, negative = inhibition) at 10uM” value: -47.3% for the first, -23.1% for the second.

Compared with `CCC1=NC(c2ccc(OC)cc2)N(O)C1(C)C` (stereo not drawn), `COc1ccc(Cc2nnc(NC(=O)C(C)C)s2)cc1` is lower in “hERG current change (%, negative = inhibition) at 10uM” value: 13.9% for the first, 11.2% for the second.

Compared with `O=C(COc1ccc(-n2cnnn2)cc1)NCCc1ccc(F)cc1`, `Cc1ccc(S(=O)(=O)N2CCC(Oc3ccc(-n4cnnn4)cc3)CC2)cc1` is higher in “hERG current change (%, negative = inhibition) at 10uM” value: -51.5% for the first, 0.934% for the second.

First: C/C=C1/C[C@@H](C)[C@](O)(CO)C(=O)OCC2=CCN3CC[C@@H](OC1=O)[C@@H]23
Second: NC(=O)CC1NC(=O)c2cc([N+](=O)[O-])cc(I)c2OCCC(C(N)=O)NC(=O)[C@@H]2CCCN2C1=O (stereo partly drawn)
The “hERG current change (%, negative = inhibition) at 10uM” value of the first is higher: 16.1% for the first, 6.79% for the second.

Going from `S=c1[nH]nc(-c2n[nH]c3c2CCC3)n1/N=C/C=C/c1ccccc1` to `CCn1c(SCC(=O)OCC(=O)N2c3ccccc3NC(=O)C2(C)C)nnc1-c1ccco1`, the “hERG current change (%, negative = inhibition) at 10uM” value falls from 13.8% to -5.88%.

Going from `CCc1ccc(NC(=O)c2cnn(-c3ccccc3)c2C2CCNCC2)cc1.Cl` to `CC(=O)Nc1ccc(SC[C@H](Cc2ccccc2)N2CC[C@@H](C)CCC2=O)cc1`, the “hERG current change (%, negative = inhibition) at 10uM” value rises from -60% to -8.11%.

Going from `O=C(CCCNC(=O)/C(=C\c1ccc(F)cc1)NC(=O)c1ccccc1)OCc1ccccc1` to `COc1ccccc1C(=O)NNC(=O)CCC(=O)NCc1ccccc1`, the “hERG current change (%, negative = inhibition) at 10uM” value rises from -77.1% to 6.36%.

Compared with `Cc1ccc(Cl)cc1N1CCN(c2cccc[n+]2C)CC1.[I-]`, `Cn1c(SCC(=O)N2CCOCC2)nnc1-c1cccc(NC(=O)c2ccccc2F)c1` is higher in “hERG current change (%, negative = inhibition) at 10uM” value: -38.4% for the first, 12.5% for the second.

Compared with `Cc1c(NC2=NC(C)(C)Cc3ccccc32)c(=O)n(-c2ccccc2)n1C`, `Cc1ccc(N2C(=O)c3ccccc3NC2(C(=O)O)c2ccccc2)cc1Cl` (stereo not drawn) is lower in “hERG current change (%, negative = inhibition) at 10uM” value: -5.5% for the first, -10.4% for the second.

Going from `O=C(Nc1nnc(-c2ccccc2)o1)Nc1ccccc1Cl` to `O=C(CNC(=O)c1ccccc1Cl)NC1CCN(Cc2ccccc2)CC1`, the “hERG current change (%, negative = inhibition) at 10uM” value rises from 8.51% to 13.1%.

First: COc1cc(/C=C/CN2CCN(Cc3ccc(C)o3)C(CCO)C2)ccc1O (stereo not drawn)
Second: OCCC1CN(Cc2cccn2-c2nccs2)CCN1C1CCCCC1 (stereo not drawn)
The “hERG current change (%, negative = inhibition) at 10uM” value of the first is higher: -6.62% for the first, -37.8% for the second.

First: C=CCN1C(=O)C2(c3ccccc31)C1CCCC=C1C(C#N)=C(N)C2(C#N)C#N (stereo not drawn)
Second: Nc1c(C(=O)NC2CC2)sc2nc3c(c(-c4ccco4)c12)CC/C3=C/c1ccco1
The “hERG current change (%, negative = inhibition) at 10uM” value of the first is lower: 1.1% for the first, 40.4% for the second.

First: CCc1ccccc1NC(=O)CNC(=O)CSC(=S)N1CCCC1
Second: Cc1ccccc1CSCC(=O)NNC(=S)NCC1CCCO1 (stereo not drawn)
The “hERG current change (%, negative = inhibition) at 10uM” value of the first is lower: -3.17% for the first, 7.94% for the second.

First: COC(=O)c1ccc(NC(=S)NCCc2ccccc2)cc1
Second: CCOc1ccc(NC(=O)NNC(=O)c2cccnc2)cc1
The “hERG current change (%, negative = inhibition) at 10uM” value of the first is higher: 12.9% for the first, 8.6% for the second.

Compared with `CN(C)S(=O)(=O)Nc1ccc2c(c1)Cc1ccccc1-2`, `COc1cccc(NC(=O)CN(C)C(=O)Cc2ccc3c(c2)CCC3)c1` is lower in “hERG current change (%, negative = inhibition) at 10uM” value: 6.73% for the first, -4.02% for the second.

Compared with `CCn1c(SCC(=O)NCC2CCCO2)nc2c(c1=O)SC(C)C2` (stereo not drawn), `CCOc1ccc(NC(=O)CC2C(=O)N(CC)C(=S)N2CCN2CCOCC2)cc1` (stereo not drawn) is lower in “hERG current change (%, negative = inhibition) at 10uM” value: 10.5% for the first, -5.97% for the second.

First: Cc1ccc(S(=O)(=O)n2cnc3cc([N+](=O)[O-])ccc32)cc1C
Second: CCn1nc(NS(=O)(=O)c2ccc([N+](=O)[O-])cc2)c2cc3cccc(C)c3nc21
The “hERG current change (%, negative = inhibition) at 10uM” value of the first is lower: -19.9% for the first, 12.3% for the second.

First: Nc1nc(SC2c3cccc4cccc(c34)C2NS(=O)(=O)c2ccccc2)n[nH]1 (stereo not drawn)
Second: Cl.c1ccc(COc2cccc(CNCc3cccnc3)c2)cc1
The “hERG current change (%, negative = inhibition) at 10uM” value of the first is higher: 5.88% for the first, -3.26% for the second.

First: Cc1ccnc(NC(=O)CCC(=O)N(CC(=O)NCc2ccccc2)Cc2cccs2)c1
Second: CC(=O)Nc1sc(NC(=O)c2ccco2)nc1-c1cccs1
The “hERG current change (%, negative = inhibition) at 10uM” value of the first is lower: -49.2% for the first, -0.485% for the second.

Going from `CCCCC#Cc1cncc(C(=O)N/N=C/c2cccc(OC)c2)c1` to `O=C(Cc1ccccc1)Nc1c[nH]c(=O)[nH]c1=O`, the “hERG current change (%, negative = inhibition) at 10uM” value rises from -19.2% to 1.05%.

Compared with `CCOC(=O)c1cc(C)sc1NC(=O)C1CCC1`, `CC(=O)Nc1nc(C(=O)O)cs1` is higher in “hERG current change (%, negative = inhibition) at 10uM” value: -11.3% for the first, 14.5% for the second.

In the case of `Cc1ccc(C)c(Cn2nnc3c(=O)[nH]c(C4CCN(S(=O)(=O)c5ccc(S(=O)(=O)NC6CC6)cc5)CC4)nc32)c1`, the “hERG current change (%, negative = inhibition) at 10uM” value is reported as 20.8%.
